# Experimental data: publication PMC4336329 (PLoS ONE, 2015)
# In all, about 310,000 compounds went through this assay and about 2,200 (0.71%) showed an effect of 50% or more. The effect is printed as a negative number. Some of the results follow.
# Target: human ether-à-go-go-related gene (hERG) potassium channel (human, UniProt Q12809)
# Test: primary screen, population patch clamp on CHO cells stably expressing hERG
# Chain of human ether-à-go-go-related gene (hERG) potassium channel (Q12809 whole entry, looked up): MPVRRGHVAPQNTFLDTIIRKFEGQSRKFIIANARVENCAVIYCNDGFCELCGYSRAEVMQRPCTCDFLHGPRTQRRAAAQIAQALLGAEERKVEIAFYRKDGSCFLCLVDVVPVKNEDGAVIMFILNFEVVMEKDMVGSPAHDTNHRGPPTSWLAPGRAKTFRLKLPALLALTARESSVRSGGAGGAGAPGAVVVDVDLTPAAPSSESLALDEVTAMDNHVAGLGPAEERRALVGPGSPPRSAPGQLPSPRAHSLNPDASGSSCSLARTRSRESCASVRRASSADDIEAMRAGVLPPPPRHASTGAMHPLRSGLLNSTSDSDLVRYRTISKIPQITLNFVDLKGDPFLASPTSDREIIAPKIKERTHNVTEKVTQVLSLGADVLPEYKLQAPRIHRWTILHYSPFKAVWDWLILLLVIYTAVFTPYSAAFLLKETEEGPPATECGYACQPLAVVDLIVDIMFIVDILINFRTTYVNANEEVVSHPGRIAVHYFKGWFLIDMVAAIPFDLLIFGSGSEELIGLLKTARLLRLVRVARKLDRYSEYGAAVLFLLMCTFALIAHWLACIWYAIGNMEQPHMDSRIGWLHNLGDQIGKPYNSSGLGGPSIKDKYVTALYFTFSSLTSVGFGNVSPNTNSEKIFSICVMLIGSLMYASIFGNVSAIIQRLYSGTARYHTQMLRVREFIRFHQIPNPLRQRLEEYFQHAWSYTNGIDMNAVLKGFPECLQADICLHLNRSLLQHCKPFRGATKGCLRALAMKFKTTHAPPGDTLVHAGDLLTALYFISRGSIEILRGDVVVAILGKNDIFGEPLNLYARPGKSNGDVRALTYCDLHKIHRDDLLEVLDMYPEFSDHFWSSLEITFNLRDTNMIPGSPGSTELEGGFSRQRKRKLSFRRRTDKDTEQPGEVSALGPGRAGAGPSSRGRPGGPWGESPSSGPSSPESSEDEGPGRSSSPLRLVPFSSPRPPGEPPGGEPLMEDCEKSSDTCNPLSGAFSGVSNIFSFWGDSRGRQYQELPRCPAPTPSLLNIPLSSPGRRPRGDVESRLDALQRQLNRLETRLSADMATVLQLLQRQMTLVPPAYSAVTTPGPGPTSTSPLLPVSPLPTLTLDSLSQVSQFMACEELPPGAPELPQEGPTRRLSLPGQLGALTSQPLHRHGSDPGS
row,SMILES,"hERG current change (%, negative = inhibition) at 1uM [%]"
1,Cn1c(-c2sc3cc(C(F)(F)F)cnc3c2-c2cccs2)n[nH]c1=S,13
2,Cc1ccc(S(=O)(=O)n2ccc3c2CCCC3=O)cc1,9.17
3,Cc1c(C(N)=O)sc(N)c1C(=O)OC(C)C,15
4,Cc1cc(C)cc(N=Cc2c(O)c3ccccc3oc2=O)c1,12.2
5,O=C(NCC1CCCO1)c1ccc(CSCc2cccc(F)c2)o1 (stereo not drawn),9.7
6,CCCCN(C)CCCNC(=O)CN1N=C(c2ccc(Cl)cc2)CCC1=O,-6.8
7,O=C(COc1ncnc2cc([N+](=O)[O-])ccc12)NCCc1ccc(Cl)cc1,6.19
8,CC(C)CCNC(=O)c1ccc2c(c1)N(C)C(=O)c1ccccc1S2,-25.6
9,O=C(O)c1ccc(N2C(=O)CC(N3C(=O)/C(=C/c4ccc(Cl)cc4)SC3=S)C2=O)cc1 (stereo not drawn),8.56
10,CCNC(=S)N(CCc1c(C)[nH]c2ccc(C)cc12)Cc1ccco1,7.27
11,COc1cccc(C2(c3cccc(OC)c3)CC2C(=O)Nc2ccccc2Cl)c1 (stereo not drawn),14.8
12,COc1ccc(C(=O)NC2CCN(C(=S)NCc3ccco3)CC2)cc1,-4.74
13,Nc1c(C(=O)Nc2ccc(Cl)c(C(=O)O)c2)sc2nc3c(cc12)CCCC3,-0.711
14,Cc1ccc(C(=O)NC(C)c2ccccc2)o1 (stereo not drawn),-0.6
15,O=C(COC(=O)c1ccc[nH]c1=O)NCCc1ccc(F)cc1,8.36
16,CC1CCN(C(=O)C2CCN(CC(C)c3ccccc3)CC2)CC1.O=C(O)C(=O)O (stereo not drawn),-6.64
17,O=C(NCCc1ccccc1)c1coc(=O)c(Br)c1,15.6
18,Cc1nc2ccccc2n1S(=O)(=O)c1cc(C(=O)O)ccc1Cl,11.4
19,CC(=O)c1cccc(OCc2cc(C(=O)N3CCC(N4CCCCC4)CC3)no2)c1,3.33
20,COc1ccccc1NC(=O)c1cnc(Nc2ccccc2OC)c2ccccc12,3.67
21,C=CCc1cccc(CNc2nc3ccccc3n2C(C)C)c1O,-11.4
22,Cc1ccc(C(=O)NC(=S)Nc2ccc(-c3cc4ccccc4oc3=O)cc2)c(C)c1,22.4

row,SMILES,"hERG current change (%, negative = inhibition) at 1uM [%]"
1,Cc1ccccc1-c1nnc(-c2cccs2)o1,13
2,COc1cc(/C=C2\COC/C(=C\c3ccc(O)c(OC)c3)C2=O)ccc1O,5.58
3,COc1ccccc1N1CCN(C2CCCN(Cc3cc(F)cc(F)c3)C2)CC1 (stereo not drawn),8.82
4,Cc1cccc2c(C(=O)Nc3ccc(Br)cc3)cc(-c3ccccn3)nc12,13.5
5,CC(C)(C)c1ccccc1NC(=O)COC(=O)CN1C(=O)NC2(CCCC2)C1=O,4.77
6,Cc1ccsc1C(C(=O)NC1CCCCC1)N(C(=O)Cc1cccs1)C1CC1 (stereo not drawn),6.91
7,Cc1ccc(C)c(-n2ccnc2SCC(=O)c2c(N)n(C3CC3)c(=O)[nH]c2=O)c1,7.73
8,CCN1CCc2c(sc(NC(=O)Cc3ccccc3)c2C(N)=O)C1.Cl,1.01
9,O=C(NNC(=O)C1CCN(S(=O)(=O)c2ccc(Cl)cc2)CC1)c1ccncc1,10.7
10,O=C(NCc1cccs1)c1ccccc1F,8.21
11,CN1CCN(CCC(=O)N/N=C/c2cc3c(cc2[N+](=O)[O-])OCO3)CC1,1.87
12,CO/N=C(\Cn1ncc(N2CCOCC2)c(Br)c1=O)c1ccc(Cl)cc1,1.96
13,CCOC(=O)c1oc2ccccc2c1CN1CCOCC1.Cl,-5.9
14,O=C(Cn1[nH]c(=O)c2ccccc2c1=O)OCC(=O)N1CCCc2ccccc21,12.9
15,O=C(O)CC/C(=N\NC(=O)CNC(=O)c1ccc(F)cc1)c1ccccc1,10.4
16,Cc1nn(-c2ccccc2)c(C)c1NC(=O)COC(=O)[C@@H](NC(=O)c1ccccc1)C(C)C,9.67
17,CS(=O)(=O)N1CCN(c2ncnc3c2cnn3-c2ccccc2)CC1,11.9
18,Nc1ccc(C(=O)OCc2nc3ccccc3[nH]2)cc1,12.5
19,C=CCn1cnc2c(nnn2-c2ccc(Cl)cc2)c1=O,2.52
20,COc1cccc(Cn2cc(C)cc(NC(=O)NCc3ccccc3)c2=O)c1,14.8
21,COc1ccc(OCC(=O)NC(CC(=O)O)c2ccc(OC)c(OC)c2)cc1 (stereo not drawn),19.2
22,COc1ccc(C2C(C(=O)c3ccco3)=C(O)C(=O)N2c2nnc(C)s2)cc1OC (stereo not drawn),18.1

row,SMILES,"hERG current change (%, negative = inhibition) at 1uM [%]"
1,CCOc1ccc(S(=O)(=O)N2CCCCC2)cc1NS(=O)(=O)c1cccs1,9.96
2,O=C(O)c1ccccc1C(=O)c1ccc(Oc2ccccc2)cc1,14.2
3,CCOc1ccc2nc(SCC(=O)N(C)C3CCS(=O)(=O)C3)[nH]c2c1 (stereo not drawn),1.23
4,CC(=O)Nc1sc2c(c1C(c1ccccc1)N1CCOCC1)CCCC2 (stereo not drawn),13.6
5,C[N+](C)(C)CCNC(=O)c1c(O)c2c([nH]c1=O)CCCC2.[I-],11.7
6,COc1ccc(C(=O)C2CCCN(C(=O)c3c4c(nn3C)CCCC4)C2)cc1F (stereo not drawn),10.5
7,Cc1ccc(S(=O)(=O)NC(=NC2CCCCC2)c2ccc(F)cc2)cc1,-18.3
8,COC(c1ccccc1)c1nnc(CCC(=O)N(C)CCc2ccccc2)o1 (stereo not drawn),-0.24
9,COC(=O)C1=C(c2ccc3ccccc3c2)C[C@@H]2CC[C@H]1N2C(=O)N1CCC(C)CC1,8.02
10,O=C(COC(=O)c1cnccn1)c1ccc(Br)cc1,6.61
11,CCN1CCC(N2CCN(c3ccc(Cl)cc3)CC2)CC1,10.7
12,Cc1cccc(OCC(=O)Nc2ccc3c4c(cccc24)CC3)c1C,16.3
13,O=C(CN1C(=O)S/C(=C\c2cccs2)C1=O)Nc1ccc(O)c(C(=O)O)c1,8.11
14,O=C(NCc1ccccc1)c1ccc2nnsc2c1,4.58
15,CC(C)NC(=O)CC(=O)N/N=C/c1cccs1,12.7
16,Cc1ccccc1NC(=O)NC1(C(=O)N2CCOCC2)CCCCC1,17.8
17,Cc1[nH]n(-c2ccccc2)c(=O)c1C(c1ccccc1C(=O)O)c1c(C)[nH]n(-c2ccccc2)c1=O,0.933
18,COc1cc(/C=N/NC(=O)Cn2nnc3ccccc32)ccc1O,12.8
19,c1ccc(CCCCN2CCN=C2Nc2ccccc2)cc1,-11.5
20,Cc1ccc(NC(=O)C2CCN(S(C)(=O)=O)CC2)cc1,9.57
21,Cc1nnc(SCC(=O)N2CCCC(C(=O)c3ccc(Cl)cc3)C2)o1 (stereo not drawn),0.262
22,CCN(CC(=O)N1CCCC1)S(=O)(=O)c1ccc(F)cc1,14.7

row,SMILES,"hERG current change (%, negative = inhibition) at 1uM [%]"
1,Cc1cccc(Cl)c1NC(=O)N1CCN(c2ccnc3cc(Cl)ccc23)CC1,-2.42
2,O=C(Nc1ccc(F)cc1)C(c1ccccc1)N1CCN(CC(=O)N2CCOCC2)CC1 (stereo not drawn),-14.5
3,CCN(C(=O)COC(=O)/C=C/c1ccco1)c1c(N)n(Cc2ccccc2)c(=O)[nH]c1=O,6.05
4,CC(=O)N1CCCC(N2CCN(c3cccc(C(F)(F)F)c3)CC2)C1 (stereo not drawn),3
5,CC(=O)c1ccc(NC(=O)c2cc(CC(C)C)on2)cc1,14
6,CCn1c(Cn2nnc(-c3ccccc3)n2)nnc1SCC(=O)Nc1ccc(C(C)=O)cc1,5.63
7,COc1ccccc1C(=O)N/C(=C/c1ccco1)C(=O)Nc1ccc(C(=O)O)cc1,5.28
8,Cc1ccc(S(=O)(=O)N2CCC(n3nnc4cc(C)ccc43)CC2)cc1,-9.01
9,COc1ccc(NC(=O)C(=O)NCCC2CCCCN2S(=O)(=O)c2ccccc2)cc1 (stereo not drawn),-21.8
10,COc1ccc(OC)c(C(=O)c2coc3ccc(OC(C)=O)cc23)c1,14.8
11,COC(=O)CSC1=C(C#N)C(c2ccsc2)CC(=O)N1 (stereo not drawn),11.8
12,CC[C@@H]1CC=C[C@H]2[C@H]1C(=O)N(Cc1ccccc1)[C@H]2c1ccc(OC)c(Cl)c1,13.9
13,COC(=O)c1ccc(N=CC2=C(O)CC(c3ccccc3)CC2=O)cc1 (stereo not drawn),14.8
14,CCOC(=O)CNC(=O)Cn1cnc2c(nnn2-c2ccc(OC)cc2)c1=O,11
15,CCN(CC(=O)Nc1ccc(OC)cc1)CC(=O)Nc1ccc(Br)cc1F,-3.75
16,CC1=CC2CC1C1C(=O)N(c3ccc(S(=O)(=O)Nc4nc(C)cc(C)n4)cc3)C(=O)C21 (stereo not drawn),14.6
17,N/C(COc1ccc(Cl)cc1Cl)=N\O,7.59
18,COc1ccc2nc(NCCCNC(=O)c3cc(OC)c(OC)c(OC)c3)c(C#N)cc2c1,8.52
19,COc1ccc(C2(C)NC(=O)N(CC(=O)NCc3ccccc3)C2=O)cc1OC (stereo not drawn),12.4
20,Cc1ccc(S(=O)(=O)c2c(N)n(/N=C/c3ccco3)c3nc4ccccc4nc23)cc1C,-14
21,CC(=O)Nc1ccc(S(=O)(=O)N(C)CC(=O)OCC(=O)N(C)C2CCS(=O)(=O)C2)cc1 (stereo not drawn),5.91
